# Data taken from article PMC4336329 (PLoS ONE, 2015).
# Out of some 310,000 compounds screened, about 2,200 (0.71%) showed an effect of 50% or more. The effect is printed as a negative number. This is one part of the list.
# Target: human ether-à-go-go-related gene (hERG) potassium channel (human, UniProt Q12809)
# Experiment: primary screen, population patch clamp on CHO cells stably expressing hERG
# Sequence of human ether-à-go-go-related gene (hERG) potassium channel (Q12809 whole entry, looked up): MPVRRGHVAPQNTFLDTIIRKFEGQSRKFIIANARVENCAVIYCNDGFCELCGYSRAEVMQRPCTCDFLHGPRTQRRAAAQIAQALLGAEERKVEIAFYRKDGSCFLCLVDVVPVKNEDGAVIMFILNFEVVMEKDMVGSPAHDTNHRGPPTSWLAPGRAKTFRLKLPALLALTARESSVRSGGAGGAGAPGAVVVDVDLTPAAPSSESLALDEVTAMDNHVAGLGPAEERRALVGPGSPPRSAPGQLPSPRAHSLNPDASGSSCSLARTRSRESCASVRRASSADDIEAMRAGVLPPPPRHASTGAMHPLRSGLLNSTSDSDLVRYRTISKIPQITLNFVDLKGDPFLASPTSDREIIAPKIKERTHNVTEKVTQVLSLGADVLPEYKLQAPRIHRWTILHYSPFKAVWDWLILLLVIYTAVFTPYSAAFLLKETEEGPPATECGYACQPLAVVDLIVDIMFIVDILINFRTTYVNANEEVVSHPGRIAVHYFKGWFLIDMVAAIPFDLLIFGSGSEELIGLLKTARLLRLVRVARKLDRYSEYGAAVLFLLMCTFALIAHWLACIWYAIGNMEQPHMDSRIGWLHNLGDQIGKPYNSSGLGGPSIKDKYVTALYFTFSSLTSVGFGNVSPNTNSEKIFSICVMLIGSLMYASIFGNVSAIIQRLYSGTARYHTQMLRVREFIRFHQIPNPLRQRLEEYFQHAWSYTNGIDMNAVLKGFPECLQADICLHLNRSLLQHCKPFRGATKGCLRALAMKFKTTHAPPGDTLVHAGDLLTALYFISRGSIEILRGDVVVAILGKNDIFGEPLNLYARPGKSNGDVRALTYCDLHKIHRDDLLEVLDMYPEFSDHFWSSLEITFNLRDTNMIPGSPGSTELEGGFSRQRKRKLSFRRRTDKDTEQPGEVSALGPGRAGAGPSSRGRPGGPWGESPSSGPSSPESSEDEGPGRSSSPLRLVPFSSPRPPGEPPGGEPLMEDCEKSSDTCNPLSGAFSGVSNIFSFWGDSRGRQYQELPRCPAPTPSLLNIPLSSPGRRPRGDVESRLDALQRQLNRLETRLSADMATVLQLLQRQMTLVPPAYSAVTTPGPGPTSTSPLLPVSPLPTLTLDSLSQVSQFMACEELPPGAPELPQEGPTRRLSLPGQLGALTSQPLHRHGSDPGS
row,Compound,"hERG current change (%, negative = inhibition) at 1uM"
1,Cc1csc(NC(=O)CCNC(=O)c2ccc([N+](=O)[O-])cc2)n1,-6.76%
2,CN(C)S(=O)(=O)c1cccc(NC(=S)NNC(=O)c2cc3ccccc3cc2O)c1,6.79%
3,COC(=O)[C@@H]1C[C@H]2CC[C@H](O)C[C@H]2N1Cc1ccccc1OC(=O)c1cccs1,-1.33%
4,Cc1[nH]c2ccccc2c1CCCO,10.6%
5,CCc1cccc(NC(=O)Cn2cc3c(n2)CCCC3)c1,0.19%
6,O=C(CCCOc1ccc(Cl)cc1Cl)NCCc1nnc2ccccn12,8.05%
7,O=C(NCCCN1CCCCCC1)c1ccc(N2CCCC2=O)cc1,2.12%
8,S=C(Nc1ccc(Br)cc1)N1CCN(c2ccccn2)CC1,14%
9,C=CCN=C1S/C(=C\c2ccc(Cl)cc2)C(=O)N1CC=C,10.8%
10,COc1ccccc1CNC(=O)C1CCN(S(=O)(=O)N2CCCCC2)CC1,5.25%
11,COc1ccc2c(c1)C1(Nc3ccccc3-c3nc4ccccc4n31)C(=O)N2C (stereo not drawn),12.1%
12,Cc1ccc(Cn2cc(SCC(N)=O)c3ccccc32)cc1,7.2%
13,Cc1noc(NS(=O)(=O)c2ccc(NC(=O)C(Cl)(Cl)Cl)cc2)c1C,19.1%
14,Cc1nn(-c2ccccc2)c(OC(=O)c2cccs2)c1S(=O)(=O)c1ccccc1,4.14%
15,CC(C)c1ccc(/C=C2\SC(=O)N(CC(=O)NCCCn3ccnc3)C2=O)cc1,11.4%
16,COc1ccc(Cl)cc1NC(=O)N1CCN(CCc2ccccc2)CC1,-6.36%
17,COc1cccc2cc(C(=O)CS(=O)(=O)c3ccc(C)cc3)c(=O)oc12,12.1%
18,O=C(O)CC/C(=N/NC(=O)c1cn(-c2ccccc2)nc1-c1ccccc1)C(=O)O,15.7%
19,Cc1ccc(C2=NN(C(=O)C3CCCO3)C(c3ccco3)C2)cc1 (stereo not drawn),10.7%
20,COc1cc(/C=C2/SC(=S)NC2=O)ccc1OS(=O)(=O)c1ccc(C)cc1,7.2%
21,CCCCN1C2CCCC1CC(NC(=O)c1ccc(OC)c(OC)c1)C2 (stereo not drawn),-17.8%
22,Cn1c(=O)[nH]c(=O)c2c1nc(N1CCN(Cc3ccccc3)CC1)n2CCCc1ccccc1,-22%
23,CC(=O)Nc1ccc(Nc2nc(-c3c(C)nc4ccccn34)cs2)cc1,17.9%
24,COC(=O)c1ccc(NC(=S)NN2CCCCC2c2cccnc2)cc1 (stereo not drawn),-0.525%
